Paper PMC4336329 (PLoS ONE, 2015)
In all, about 310,000 compounds went through this assay and about 2,200 (0.71%) showed an effect of 50% or more. The effect is printed as a negative number. Some of the results follow.

Biological target: human ether-à-go-go-related gene (hERG) potassium channel (human, UniProt Q12809)
Test: primary screen, population patch clamp on CHO cells stably expressing hERG

human ether-à-go-go-related gene (hERG) potassium channel, sequence (Q12809 whole entry, looked up): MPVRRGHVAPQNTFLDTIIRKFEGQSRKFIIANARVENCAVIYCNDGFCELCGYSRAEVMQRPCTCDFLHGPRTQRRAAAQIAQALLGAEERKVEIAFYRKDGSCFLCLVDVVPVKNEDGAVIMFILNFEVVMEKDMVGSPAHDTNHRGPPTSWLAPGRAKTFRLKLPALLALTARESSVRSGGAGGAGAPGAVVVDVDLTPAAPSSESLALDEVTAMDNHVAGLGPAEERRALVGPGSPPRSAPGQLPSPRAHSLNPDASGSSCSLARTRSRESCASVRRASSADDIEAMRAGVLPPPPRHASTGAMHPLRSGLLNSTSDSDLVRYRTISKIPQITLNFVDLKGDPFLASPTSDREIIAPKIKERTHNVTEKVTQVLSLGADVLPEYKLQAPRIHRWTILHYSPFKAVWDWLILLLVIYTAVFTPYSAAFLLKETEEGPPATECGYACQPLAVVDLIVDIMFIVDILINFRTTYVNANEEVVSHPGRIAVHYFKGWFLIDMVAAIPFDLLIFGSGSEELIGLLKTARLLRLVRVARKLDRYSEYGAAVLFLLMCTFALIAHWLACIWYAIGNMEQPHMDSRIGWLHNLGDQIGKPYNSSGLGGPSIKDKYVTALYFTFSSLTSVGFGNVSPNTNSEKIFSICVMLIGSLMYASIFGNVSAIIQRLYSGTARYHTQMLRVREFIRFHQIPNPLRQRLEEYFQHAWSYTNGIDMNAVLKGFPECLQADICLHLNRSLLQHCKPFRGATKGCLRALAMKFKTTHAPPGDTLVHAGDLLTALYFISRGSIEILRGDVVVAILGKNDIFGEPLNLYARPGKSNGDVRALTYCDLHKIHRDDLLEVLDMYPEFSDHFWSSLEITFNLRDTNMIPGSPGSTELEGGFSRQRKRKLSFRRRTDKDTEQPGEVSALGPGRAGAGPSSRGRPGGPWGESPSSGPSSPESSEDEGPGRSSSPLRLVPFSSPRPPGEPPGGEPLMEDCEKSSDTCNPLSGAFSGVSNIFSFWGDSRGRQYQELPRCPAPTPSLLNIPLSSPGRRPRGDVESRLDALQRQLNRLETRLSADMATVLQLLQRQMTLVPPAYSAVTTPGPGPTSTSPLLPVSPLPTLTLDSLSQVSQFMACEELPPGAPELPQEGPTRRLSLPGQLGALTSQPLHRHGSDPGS

Row | Compound | hERG current change (%, negative = inhibition) at 1uM
1 | CC1CCc2sc(C(=O)NC3CCN(Cc4ccccc4)CC3)cc2C1 (stereo not shown) | -3.62%
2 | COc1ccc(C)cc1S(=O)(=O)N(C)CC(=O)N1CCC(C)CC1 | 13.9%
3 | CCOC(=O)c1oc2nc3c(cc2c1N)COC(C)(C)C3 | 11.7%
4 | Cc1cc(=O)oc2cc(OCC(=O)N3CC(C)OC(C)C3)ccc12 (stereo not shown) | 9.82%
5 | COc1ccc(NC(=O)CN(C)CC(=O)Nc2ccc3c(c2)CCC3)cc1 | 3.24%
6 | COc1ccc(NC(=O)CN(C)C(=O)c2cc(C)on2)cc1 | 8.15%
7 | CCc1c(C(=O)N2CCCN(C)CC2)csc1C | 8.39%
8 | Cc1ccc(OCC(O)CN2CC3(C)CC2CC(C)(C)C3)cc1.O=C(O)C(=O)O (stereo not shown) | -18.6%
9 | C=CCOc1ccc(C(=O)N(Cc2ccc(N(C)C)cc2)C2CCS(=O)(=O)C2)cc1 (stereo not shown) | 2.15%
10 | Cc1ccc(N2CC(C(=O)Nc3ccc(C)c(S(=O)(=O)N(C)C)c3)CC2=O)cc1 (stereo not shown) | -3.07%
11 | O=C(COc1ccc2ccc(=O)oc2c1)Nc1cccnc1 | 15%
12 | Cn1nnnc1SCC1=C(C(=O)[O-])N2C(=O)[C@@H](NC(=O)[C@H](O)c3ccccc3)[C@H]2SC1.[Na+] | 13%
13 | CCC(C)c1ccccc1NC(=O)CN(C)CCOc1ccc(Cl)cc1 (stereo not shown) | 7.99%
14 | O=C(Nc1ccccc1N1CCCC1)c1ccc(Cl)c(S(=O)(=O)N2CCOCC2)c1 | 7.53%
15 | O=c1[nH]cnc2c1cnn2Cc1ccccc1 | 20.3%
16 | COc1ccc([N+](=O)[O-])cc1NC(=O)CCN1CCN(C)CC1 | 16.9%
17 | COC(=O)CC1NCCc2cc(OC)c(OC)cc21 (stereo not shown) | 5.12%
18 | COCCNC(=O)CCSCc1ccccc1F | -0.531%
19 | Cc1cc(C)nc(NC(=O)c2ccc(COc3ccccc3Cl)cc2)c1 | 22.7%
20 | COCCNC(=O)c1ccc2c(c1)NC(=O)CS2 | 11.2%
21 | COc1cccc(NC(=O)Nc2cc(C)ccc2F)c1 | -8.17%
22 | O=C(COc1ccccc1Cl)NNC(=O)c1cc(S(=O)(=O)N2CCOCC2)ccc1N1CCCC1 | 7.32%
23 | COc1ccc(-c2coc3c(C)c4oc(=O)c(CCC(=O)O)c(C)c4cc23)cc1 | 6.19%
24 | O=C(CSc1ccsc1[N+](=O)[O-])NCCc1ccc(Cl)cc1 | 19.4%
25 | COc1ccc(Cl)cc1NC(=O)CN(C)CC(=O)Nc1ccc(S(N)(=O)=O)cc1 | 14%
26 | CN(C)C=NC1=NN(c2cccc(C(F)(F)F)c2)CC1 | 2.4%
27 | O=C(CSc1cn(CCNC(=O)c2ccccc2)c2ccccc12)NCC1CCCO1 (stereo not shown) | 6.2%
28 | NS(=O)(=O)c1ccc(CNC(=O)CNC(=O)Cc2ccccc2)cc1 | 17.7%

Row | Compound | hERG current change (%, negative = inhibition) at 1uM
29 | CCOC(=O)NC(=O)CSc1nc(C)cc(C)c1C#N | 2.62%
30 | CCOC(=O)CN(c1ccccn1)S(=O)(=O)c1ccc(OC)cc1 | 12.1%
31 | CC(=O)N1CCCc2cc(S(=O)(=O)N3CCCC(C(=O)N4CCN(c5cccc(Cl)c5)CC4)C3)ccc21 (stereo not shown) | 12.6%
32 | Cc1cccc(NC(=O)c2ccc(S(=O)(=O)N3CCCC3)cc2)c1C | 12.4%
33 | CC1(CC(=O)N/N=C/c2ccc(-c3ccc(Cl)cc3)o2)OCCO1 | 11%
34 | O=C1CCc2cc(S(=O)(=O)NCc3ccccc3Cl)ccc2N1 | -4.94%
35 | Cc1ccc(C(=O)n2c(-c3ccccc3)cnc2SCC(=O)Nc2ccc(C)cc2C)cc1 | 24.6%
36 | O=[N+]([O-])c1cccc(/C=C/C=N/Nc2nc(N3CCCCC3)nc(N3CCCCC3)n2)c1 | 13.9%
37 | CC(=O)c1c(O)cc(=O)oc1-c1ccc(C)cc1 | 13.5%
38 | Cc1cc2nc(SCCOC(=O)Nc3cccc(Cl)c3)nc(C)c2cc1C | -0.799%
39 | c1ccc(CCSc2nccn2-c2ccccc2)cc1 | 3.03%
40 | CC(=O)Nc1ccc(OCC(O)Cn2cccn2)cc1 (stereo not shown) | 14%
41 | CCCNC(=O)c1oc2ccc3c(c2c1C)C=CC(C)(C)O3 | 12%
42 | COc1ccc(C)cc1Nc1n[n+](C)c(-c2ccc(O)cc2O)s1.[Cl-] | 24.9%
43 | CN(c1ccc(C(=O)NC2CCCCC2)cc1)S(=O)(=O)c1ccccc1 | 10.2%
44 | CC(C)c1ccc(NC(=O)N2CCN(S(=O)(=O)c3ccccc3)CC2)cc1 | 4.91%
45 | Cn1nnnc1SCC(=O)Nc1ccc(C(=O)N2CCN(Cc3ccccc3F)CC2)cc1 | 18.3%
46 | C#CCOCCOCCOCCNc1nc(N2CCN(C(=O)[C@H]([C@@H](C)CC)n3cc([C@@H](N)Cc4ccc(O)cc4)nn3)CC2)nc(N2CCN(C(=O)[C@H](CCCCN)n3cc([C@@H](N)C(C)CC)nn3)CC2)n1.Cl (stereo partly shown) | 8.74%
47 | O=C(c1ccc(Cl)c([N+](=O)[O-])c1)N1CCN(C(=O)c2ccco2)CC1 | -19.5%
48 | NS(=O)(=O)c1ccc(NC(=S)N2CCN(Cc3ccc(Cl)c(Cl)c3)CC2)cc1 | 9.4%
49 | Cc1cnc(C(=O)N2CCc3c([nH]c4ccccc34)C2c2ccc(F)cc2)cn1 (stereo not shown) | -1.15%
50 | CCN(C(=S)Nc1cccc(C)c1)c1ccccc1 | 23.9%
51 | Cc1cc(-c2cc(-c3ccc(Cl)cc3)on2)nc(NC2CCCC2)n1 | 5.86%
52 | CC(=O)Oc1ccc2c(C)cc(=O)oc2c1C(=O)c1ccccc1 | 17%
53 | CCn1cc(SCC(=O)N2CCOCC2)c2ccccc21 | 12.9%
54 | COc1cc(/C=C(\NC(C)=O)C(=O)NC(C)(C)CC(C)(C)C)ccc1OC(C)=O | 2.58%
55 | COC(=O)CN1C(=O)[C@H]2[C@@H](/C=C/c3ccccc3)N3C(=O)CN(Cc4ccccc4)C(=O)[C@@]3(Cc3ccccc3)[C@H]2C1=O | 7.66%
